# Experimental data as given in article PMC9911399, “Two distinct binding modes provide the RNA-binding protein RbFox with extraordinary sequence specificity”.
# Where a chain is given by its changes, count along the chain named. The list shows a part of the results.
# T1: RBFOX1 RRM RbFoxmut (Fox-RRM*) (Homo sapiens, UniProt Q9NWB1 109-208, R118D;E147R;N151S;E152T)
# T1 sequence: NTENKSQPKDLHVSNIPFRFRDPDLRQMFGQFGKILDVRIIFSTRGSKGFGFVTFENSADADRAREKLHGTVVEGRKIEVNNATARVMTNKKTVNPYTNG
# B1: GCGCUUA (DNA:RNA)
# RNA: GGGAGACCGGAAUUCAGAUUGUCCGCGCUUAUUAAAUCCCGUCGUAGCCACCA
# DNA 1: CAATCTGAATTCCGGTCTCCC
# DNA 2: TGGTGGCTACGACGGGATT
# B2: ACCUAGU (DNA:RNA)
# RNA: B1 RNA with G25A, G27C, C28U, U29A, U30G, A31U
# DNA 1: CAATCTGAATTCCGGTCTCCC
# DNA 2: TGGTGGCTACGACGGGATT
# B3: CUCAUAU (DNA:RNA)
# RNA: B1 RNA with G25C, C26U, G27C, C28A, U30A, A31U
# DNA 1: CAATCTGAATTCCGGTCTCCC
# DNA 2: TGGTGGCTACGACGGGATT
# B4: CAUGGGC (DNA:RNA)
# RNA: GGGAGACCGGAAUUCAGAUUGUCCCAUGGGCUUAAAUCCCGUCGUAGCCACCA
# DNA 1: CAATCTGAATTCCGGTCTCCC
# DNA 2: TGGTGGCTACGACGGGATT
# B5: CACUAAC (DNA:RNA)
# RNA: B4 RNA with U27C, G28U, G29A, G30A
# DNA 1: CAATCTGAATTCCGGTCTCCC
# DNA 2: TGGTGGCTACGACGGGATT
# B6: AGAAACA (DNA:RNA)
# RNA: B1 RNA with G25A, C26G, G27A, C28A, U29A, U30C
# DNA 1: CAATCTGAATTCCGGTCTCCC
# DNA 2: TGGTGGCTACGACGGGATT
# B7: CUGAAUG (DNA:RNA)
# RNA: B1 RNA with G25C, C26U, C28A, U29A, A31G
# DNA 1: CAATCTGAATTCCGGTCTCCC
# DNA 2: TGGTGGCTACGACGGGATT
# B8: AUCUGGU (DNA:RNA)
# RNA: B4 RNA with C25A, A26U, U27C, G28U, C31U
# DNA 1: CAATCTGAATTCCGGTCTCCC
# DNA 2: TGGTGGCTACGACGGGATT
# B9: ACUGGUG (DNA:RNA)
# RNA: B4 RNA with C25A, A26C, G30U, C31G
# DNA 1: CAATCTGAATTCCGGTCTCCC
# DNA 2: TGGTGGCTACGACGGGATT
# B10: CAAAGUC (DNA:RNA)
# RNA: B4 RNA with U27A, G28A, G30U
# DNA 1: CAATCTGAATTCCGGTCTCCC
# DNA 2: TGGTGGCTACGACGGGATT
# B11: GAAGGCU (DNA:RNA)
# RNA: B4 RNA with C25G, U27A, G30C, C31U
# DNA 1: CAATCTGAATTCCGGTCTCCC
# DNA 2: TGGTGGCTACGACGGGATT
# B12: CGCACAC (DNA:RNA)
# RNA: B4 RNA with A26G, U27C, G28A, G29C, G30A
# DNA 1: CAATCTGAATTCCGGTCTCCC
# DNA 2: TGGTGGCTACGACGGGATT
# B13: GAGGCCU (DNA:RNA)
# RNA: B4 RNA with C25G, U27G, G29C, G30C, C31U
# DNA 1: CAATCTGAATTCCGGTCTCCC
# DNA 2: TGGTGGCTACGACGGGATT
# B14: CCUGAUU (DNA:RNA)
# RNA: B4 RNA with A26C, G29A, G30U, C31U
# DNA 1: CAATCTGAATTCCGGTCTCCC
# DNA 2: TGGTGGCTACGACGGGATT
# B15: CAGGAGG (DNA:RNA)
# RNA: B4 RNA with U27G, G29A, C31G
# DNA 1: CAATCTGAATTCCGGTCTCCC
# DNA 2: TGGTGGCTACGACGGGATT
# B16: AGUAUCG (DNA:RNA)
# RNA: B4 RNA with C25A, A26G, G28A, G29U, G30C, C31G
# DNA 1: CAATCTGAATTCCGGTCTCCC
# DNA 2: TGGTGGCTACGACGGGATT
# B17: UCUCAGG (DNA:RNA)
# RNA: B4 RNA with C25U, A26C, G28C, G29A, C31G
# DNA 1: CAATCTGAATTCCGGTCTCCC
# DNA 2: TGGTGGCTACGACGGGATT
# B18: GAUACAG (DNA:RNA)
# RNA: B4 RNA with C25G, G28A, G29C, G30A, C31G
# DNA 1: CAATCTGAATTCCGGTCTCCC
# DNA 2: TGGTGGCTACGACGGGATT
# B19: CGUUAUG (DNA:RNA)
# RNA: B4 RNA with A26G, G28U, G29A, G30U, C31G
# DNA 1: CAATCTGAATTCCGGTCTCCC
# DNA 2: TGGTGGCTACGACGGGATT
# B20: AGGAUAC (DNA:RNA)
# RNA: B1 RNA with G25A, C26G, C28A, U30A, A31C
# DNA 1: CAATCTGAATTCCGGTCTCCC
# DNA 2: TGGTGGCTACGACGGGATT
# B21: CCGUCCG (DNA:RNA)
# RNA: B1 RNA with G25C, C28U, U29C, U30C, A31G
# DNA 1: CAATCTGAATTCCGGTCTCCC
# DNA 2: TGGTGGCTACGACGGGATT
# B22: CGUCUAU (DNA:RNA)
# RNA: B4 RNA with A26G, G28C, G29U, G30A, C31U
# DNA 1: CAATCTGAATTCCGGTCTCCC
# DNA 2: TGGTGGCTACGACGGGATT
# B23: GUCCAAA (DNA:RNA)
# RNA: B1 RNA with C26U, G27C, U29A, U30A
# DNA 1: CAATCTGAATTCCGGTCTCCC
# DNA 2: TGGTGGCTACGACGGGATT
# B24: GGUAUGA (DNA:RNA)
# RNA: B1 RNA with C26G, G27U, C28A, U30G
# DNA 1: CAATCTGAATTCCGGTCTCCC
# DNA 2: TGGTGGCTACGACGGGATT
# B25: GGUUCGC (DNA:RNA)
# RNA: B4 RNA with C25G, A26G, G28U, G29C
# DNA 1: CAATCTGAATTCCGGTCTCCC
# DNA 2: TGGTGGCTACGACGGGATT
# B26: UUUUGGC (DNA:RNA)
# RNA: B4 RNA with C25U, A26U, G28U
# DNA 1: CAATCTGAATTCCGGTCTCCC
# DNA 2: TGGTGGCTACGACGGGATT
# B27: CCAAUGC (DNA:RNA)
# RNA: B4 RNA with A26C, U27A, G28A, G29U
# DNA 1: CAATCTGAATTCCGGTCTCCC
# DNA 2: TGGTGGCTACGACGGGATT
# B28: GAUCACG (DNA:RNA)
# RNA: B4 RNA with C25G, G28C, G29A, G30C, C31G
# DNA 1: CAATCTGAATTCCGGTCTCCC
# DNA 2: TGGTGGCTACGACGGGATT
# B29: UGUUGCU (DNA:RNA)
# RNA: B4 RNA with C25U, A26G, G28U, G30C, C31U
# DNA 1: CAATCTGAATTCCGGTCTCCC
# DNA 2: TGGTGGCTACGACGGGATT
# B30: UUCGCAA (DNA:RNA)
# RNA: B4 RNA with C25U, A26U, U27C, G29C, G30A, C31A
# DNA 1: CAATCTGAATTCCGGTCTCCC
# DNA 2: TGGTGGCTACGACGGGATT
# B31: GCGUGUA (DNA:RNA)
# RNA: B1 RNA with C28U, U29G
# DNA 1: CAATCTGAATTCCGGTCTCCC
# DNA 2: TGGTGGCTACGACGGGATT
# Target: T1, RBFOX1 RRM RbFoxmut (Fox-RRM*)
# Assay: EMSA; HiTS-Eq, 1 nM pool, 10 min; buffer printed only for the single-RNA assays: 10 mM Tris pH 7.5, 150 mM NaCl, 3.4 mM EDTA, 0.001% NP-40, 30 C
# Conditions: tags: His6 N-terminal (pET28a); label: 5' 32P
# In short: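 A pool of RNA with 7 randomized nucleotides, 5′-radiolabelled and with DNA-annealed flanks, was equilibrated at 1 nM for 10 min in 50 µL with purified RbFox RRM, wild type or mutant, across increasing protein concentrations. Free RNA was separated by 8% native PAGE, excised, reverse-transcribed, barcoded by PCR and sequenced. Relative association constants were obtained from read-count changes of each RNA species versus the control reaction and normalised to the cognate motif.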
row,Binder,binding signal
1,B1,0.108 KA relative to UGCAUGU
2,B2,0.14 KA relative to UGCAUGU
3,B3,0.113 KA relative to UGCAUGU
4,B4,0.0887 KA relative to UGCAUGU
5,B5,0.098 KA relative to UGCAUGU
6,B6,0.0753 KA relative to UGCAUGU
7,B7,0.915 KA relative to UGCAUGU
8,B8,0.121 KA relative to UGCAUGU
9,B9,0.131 KA relative to UGCAUGU
10,B10,0.0454 KA relative to UGCAUGU
11,B11,0.0674 KA relative to UGCAUGU
12,B12,0.0785 KA relative to UGCAUGU
13,B13,0.0941 KA relative to UGCAUGU
14,B14,0.0817 KA relative to UGCAUGU
15,B15,0.107 KA relative to UGCAUGU
16,B16,0.293 KA relative to UGCAUGU

row,Binder,binding signal
1,B17,0.114 KA relative to UGCAUGU
2,B18,0.0827 KA relative to UGCAUGU
3,B19,0.269 KA relative to UGCAUGU
4,B20,0.109 KA relative to UGCAUGU
5,B21,0.0957 KA relative to UGCAUGU
6,B22,0.107 KA relative to UGCAUGU
7,B23,0.0688 KA relative to UGCAUGU
8,B24,0.468 KA relative to UGCAUGU
9,B25,0.145 KA relative to UGCAUGU
10,B26,0.11 KA relative to UGCAUGU
11,B27,0.0919 KA relative to UGCAUGU
12,B28,0.0819 KA relative to UGCAUGU
13,B29,0.138 KA relative to UGCAUGU
14,B30,0.068 KA relative to UGCAUGU
15,B31,0.266 KA relative to UGCAUGU
